Screen size: about 43,000 compounds; about 200 (0.47%) were called active. Another 12% or so got no clear call; they are omitted. Calls follow the shape of the dose curve; as a rule, active = well fitted cell-killing curve with a large enough effect; inconclusive = small, poorly fitted or top-dose-only effect, or effect the other way; inactive = flat fitted curve, though single readings scatter. Some of the results follow.
% is scaled to controls: 0 for no effect and ±100 for the full control effect.

A short description of this assay: Cell viability qHTS assay in S16 Pmp22-F2sN cells. Also: nearly all actives have a fitted effect of over 65% in size. The conditions noted are these: S16 Pmp22-F2sN Schwann cells (luciferase reporters placed in the Pmp22 gene) viability, CellTiter-Glo, 24 h; series mostly up to 57.5 µM; activity change, negative = cytotoxicity: at the top concentration. An outline of the steps:
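Rat S16 Schwann reporter line, 24 h treatment with library compounds delivered at 23 nL per well. Cell viability by CellTiter-Glo luminescence.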
For `Cc1ccc(NC(=O)CSc2nnc(N)s2)c(C)c1`, the “activity change, negative = cytotoxicity” value is inactive: 1.23%.
For `COc1ccc(CNC(=O)C2CCN(S(=O)(=O)c3cccc4nonc34)CC2)cc1OC`, the “activity change, negative = cytotoxicity” value is inactive: 25.6%.
With `CC(C)C(=O)OCc1cc(=O)n2nc(C3CCCCC3)sc2n1` the figure was inactive: 23.8%.
With `O=C(c1cccs1)N1CCCc2cc(NS(=O)(=O)c3ccc(F)cc3)ccc21` the figure was inactive: -1.42%.
For the molecule `COCCCNC(=O)CCc1c(C)nc2cc(-c3ccc(Cl)cc3)nn2c1C`, the “activity change, negative = cytotoxicity” value was inactive: -7.05%.
For `O=C(Nc1ccc2nn(-c3ccccc3)nc2c1)c1ccc(-c2cccc(Cl)c2)o1` the value was inactive: -5.04%.
As for `CCOc1ccc(C(=O)N2CCN(Cc3cc(=O)n4nc(-c5ccccc5Cl)sc4n3)CC2)cc1`, the “activity change, negative = cytotoxicity” value is inactive: 22.5%.
Take `O=C(CSc1nnc(CNC(=O)c2c(F)cccc2Cl)o1)Nc1cccc(F)c1`: the “activity change, negative = cytotoxicity” value was inactive: 2.77%.
On to `CCOc1ccc(NS(=O)(=O)c2ccc(NC(=O)N3CCCC3)cc2)cc1`, for which the “activity change, negative = cytotoxicity” value is inactive: 3.81%.
For `O=C(c1ccc2c(=O)n(CCc3ccccc3)c(=O)[nH]c2c1)N1CCN(c2ccc(Cl)cc2)CC1`, the “activity change, negative = cytotoxicity” value was inactive: 0.0608%.
Take `CCS(=O)(=O)N1CCc2cc(C(=O)Nc3cc(Cl)ccc3C)ccc21`: the “activity change, negative = cytotoxicity” value was inactive: 0.0436%.
As for `Cc1nn2c(-c3cccc(NC(=O)c4ccc(Cl)cc4)c3)nnc2c2ccccc12`, the “activity change, negative = cytotoxicity” value was inactive: 12.6%.
With `COc1ccc(CCNC(=O)CCS(=O)(=O)c2ccc3c(c2)oc(=O)n3C)cc1OC` the figure was inactive: 5.35%; with `Cc1ccc(N2CCN(C(=O)c3cn(C)c4ccc(S(=O)(=O)N(C)C5CCCCC5)cc4c3=O)CC2C)cc1` (stereo not given), inactive: 2.73%; with `CCOC(=O)c1c(C)[nH]c(CCC(=O)Nc2ccccc2C(=O)OC)c1C`, inactive: 19.9%.
In the case of `CC(C)C(=O)Nc1ccc2nc(SCCOc3ccccc3)sc2c1`, the “activity change, negative = cytotoxicity” value was inactive: -7.72%.
Turning to `CCn1c(=O)n(CC)c2cc(N3CCCCC3)c(NC(=O)Nc3cc(Cl)ccc3OC)cc21`, the “activity change, negative = cytotoxicity” value is inactive: -17.3%.
In the case of `Cc1cccc(CNC(=O)c2ccc(Cn3c(=O)c4cccn4c4cccnc43)cc2)c1`, the “activity change, negative = cytotoxicity” value is inactive: 5.87%.
With `O=C(CC1N=C2c3ccccc3N=C(SCc3ccccc3F)N2C1=O)NCc1cccs1` (stereo not given) the figure was inactive: -1.52%; with `Cc1ccc(NC(=O)C(Cc2ccccc2)NS(=O)(=O)c2cccc3nsnc23)c(C)c1` (stereo not given), inactive: -10.6%; with `CC1CCCCN1S(=O)(=O)c1ccc2c(c1)oc(=O)n2CC(=O)Nc1ccc(Cl)cc1` (stereo not given), inactive: 1.79%.
For `COc1cc(C2CC(=O)Nc3c2c(=O)nc2c(C)cccn32)cc(OC)c1OC` (stereo not given) the value was inactive: 7.76%; for `COc1cccc(NC(=O)/C(C#N)=C\c2cn(Cc3ccc(Cl)cc3)c3ccccc23)c1`, inactive: 4.77%.
On to `CCc1ccc(-c2nn(CC(=O)NC3CCCCC3)c3c2cnc2ccc(OC)cc23)cc1`, for which the “activity change, negative = cytotoxicity” value is inactive: 28.6%.
Turning to `Cc1ccc(Cl)cc1NC(=O)C(=O)NCCc1sc(-c2ccc(F)cc2)nc1C`, the “activity change, negative = cytotoxicity” value is inactive: 7.96%.
As to `COc1ccc(CC(=O)Nc2sc3c(c2C(=O)Nc2c(C)cccc2C)CCCCC3)cc1`, the “activity change, negative = cytotoxicity” value was inactive: -4.43%.
With `COc1ccc(NC(=O)CSC2=Nc3ccccc3C3=NC(CC(=O)NCc4ccc(F)cc4)C(=O)N23)cc1` (stereo not given), the “activity change, negative = cytotoxicity” value is inactive: -4.24%.
Turning to `CCCCc1ccc(C(=O)N/C(=C\c2ccc(C)cc2)C(=O)NC2CCCCC2)cc1`, the “activity change, negative = cytotoxicity” value was inactive: 10.5%.
With `Cc1cc(C(F)F)n2nc(C(=O)Nc3ccc(F)c(Cl)c3)nc2n1` the figure was inactive: 2.76%; with `CCc1nc2ccc(C(=O)N3CCN(c4ccc(Cl)cc4)CC3)cc2nc1CC`, inactive: -0.493%.
Turning to `CCCOc1ccc(C(=O)Nc2c(C(=O)c3ccc(C)cc3)oc3ccccc23)cc1`, the “activity change, negative = cytotoxicity” value was inactive: 12.5%.
With `COc1ccc(CNC(=O)Cn2c(=O)oc3cc(S(=O)(=O)N4CCCC4)ccc32)cc1` the figure was inactive: -9.98%.
With `Cc1cccc(S(=O)(=O)c2cn(Cc3ccccc3)c3cc(N4CCCCC4C)c(F)cc3c2=O)c1` (stereo not given) the figure was inactive: -6.59%; with `Cc1ccc(NC(=O)CN2CCN(C3CCCCC3)C(=O)C2=O)cc1C`, inactive: 2.33%; with `Cc1ccc2c(c1)sc1nc(=O)n(-c3cccc(Cl)c3)c(=O)n12`, inactive: 10.5%.
For `CN(C(=O)NCc1noc2ccccc12)c1cccc(Cl)c1` the value was inactive: -3.79%; for `COc1ccccc1NC(=O)C1=C(C)Nc2nc(SCc3ccccc3Cl)nn2C1c1cccnc1` (stereo not given), inactive: 2.85%.
With `COc1ccc(CN2C(=O)c3ccccc3C2C(=O)NC2CCCCCC2)c(OC)c1` (stereo not given), the “activity change, negative = cytotoxicity” value is inactive: 0.563%.
With `O=C(Cn1ncc2c3ccccc3n(Cc3cccc(Cl)c3)c2c1=O)N1CCCCC1`, the “activity change, negative = cytotoxicity” value was inactive: -28%.
As for `CCOC(=O)C1CCN(C(=O)Cn2nc(CC)n3c(cc4occc43)c2=O)CC1`, the “activity change, negative = cytotoxicity” value is inactive: 11.1%.
With `Cc1cc(Cl)ccc1NS(=O)(=O)c1cc2[nH]c(=O)c(=O)[nH]c2cc1C` the figure was inactive: 4.99%; with `Cc1ccc(-n2c(=O)[nH]c3sc4c(c3c2=O)CCNC4)cc1C`, inactive: 1.03%.
For `CCCCc1nn2c(C)c(-c3ccc(OCC)cc3)nc2s1` the value was inactive: -28.8%.
In the case of `O=C(COc1ccccc1F)Nc1ccc2nc(SCc3ccccc3)sc2c1`, the “activity change, negative = cytotoxicity” value was inactive: 16.7%.
For `CCC(=O)N1CCc2cc(S(=O)(=O)NCCC(=O)Nc3cccc(SC)c3)ccc21` the value was inactive: -16.3%; for `COc1ccc2oc(=O)c(-c3nc4ccc(C)cc4[nH]3)cc2c1`, inactive: -29.5%; for `CCOC(=O)c1cc(-c2ccc(F)cc2)n(CCC(=O)NCc2ccc(C)cc2)c1C`, inactive: -10.8%.
With `Cc1ccc2oc(C(=O)Nc3ccc(S(=O)(=O)Nc4ncccn4)cc3)cc(=O)c2c1` the figure was inactive: -12.4%; with `CCC(C(=O)Nc1cc(OC)ccc1OC)n1nc(-c2ccccc2)c2c(c1=O)CCCC2` (stereo not given), inactive: -27.2%.
Regarding `CN(C)S(=O)(=O)N(CC(=O)NCCSc1ccc(Cl)cc1)c1ccccc1`, the “activity change, negative = cytotoxicity” value was inactive: 15.2%.
For the molecule `Cn1c2ccccc2c2c(C(=O)N3CCN(c4cccc(C(F)(F)F)c4)CC3)cn(C3CCCCC3)c(=O)c21`, the “activity change, negative = cytotoxicity” value is inactive: -12.8%.
With `Cc1ccc(-c2cn3nc(N4CCC(C(=O)Nc5ccccc5C)CC4)sc3n2)cc1` the figure was inactive: -0.176%.
On to `CCOc1ccccc1CNC(=O)C1CCN(Cc2cc3ccccc3n2Cc2ccccc2)CC1`, for which the “activity change, negative = cytotoxicity” value was inactive: -15.5%.
For `CCCS(=O)(=O)c1nc(S(=O)(=O)c2ccc(C)cc2)c(NC(C)c2ccccc2)s1` (stereo not given) the value was inactive: -0.49%; for `Cc1cc(C)c2oc(C(=O)Nc3nc4ccc(Cl)cc4s3)cc(=O)c2c1`, inactive: 17.3%; for `Cc1cccc(Cn2c(SCc3ccc(C(=O)NCc4ccccc4F)cc3)nc3cccnc32)c1`, inactive: -19.2%.
Turning to `Cc1ccc(-n2ccnc(NCc3cccs3)c2=O)cc1C`, the “activity change, negative = cytotoxicity” value is inactive: 24.4%.
As to `COc1cccc(NS(=O)(=O)c2ccc3[nH]cc(C(=O)NCCc4ccc(C)cc4)c(=O)c3c2)c1`, the “activity change, negative = cytotoxicity” value was inactive: -16.4%.
For `CN1C(C(=O)NC(C)(C)C)=CC(c2ccc3c(c2)OCO3)=NS1(=O)=O` the value was inactive: 1.2%; for `COc1cc2nc(NC(=O)c3ccc(S(=O)(=O)N4CCCC4)cc3)sc2cc1OC`, inactive: 1.65%; for `O=C(COCc1cc(-c2ccc3c(c2)OCO3)on1)N1CCN(c2cccc(C(F)(F)F)c2)CC1`, inactive: -28.3%.
For `Cc1ccc(C)c(NC2=C(c3ccc(C(F)(F)F)cc3)C(=O)c3ccccc32)c1` the value was inactive: -24.3%.
For `COc1ccccc1C(=O)NCCc1csc(-c2ccc(C(F)(F)F)cc2)n1` the value was inactive: 9.54%.
As to `COc1cc(NC(=O)Cn2c(=O)n(CC3CCCO3)c(=O)c3cc(OC)c(OC)cc32)cc(OC)c1` (stereo not given), the “activity change, negative = cytotoxicity” value is inactive: 19.1%.
For `CCOCCc1nn2c(=O)cc(COC(=O)c3ccc(NC(=O)c4ccc(F)cc4)cc3)nc2s1` the value was inactive: -6.13%; for `CCc1ccc(C2CC(=O)N(c3cccc(C(F)(F)F)c3)C3=C2C(=O)OC3)cc1` (stereo not given), inactive: 5.86%; for `COc1ccc2c(CNC3CCC(C)CC3)c(C(=O)O)n(Cc3ccccc3)c2c1` (stereo not given), inactive: 27.7%.
Turning to `CC(=O)N1CCc2cc(CNC(=O)Nc3ccccc3C(F)(F)F)ccc21`, the “activity change, negative = cytotoxicity” value was inactive: -14.4%.
`COc1ccccc1CNS(=O)(=O)c1cc(-c2cc(C)no2)ccc1C`: the “activity change, negative = cytotoxicity” value is inactive: -3.15%.
For `Cc1nn(CCCC(=O)NCCc2ccc(Cl)cc2)c(=O)c2nn(-c3ccccc3)c(C)c12` the value was inactive: -4.56%; for `O=C(NCc1cccc(Cl)c1)c1oc(=O)c2ccccc2c1-c1ccccc1`, inactive: 1.51%.
Turning to `COC(=O)c1ccc(NC(=O)c2nn(C)c3c2COc2ccccc2-3)cc1`, the “activity change, negative = cytotoxicity” value is inactive: 2.53%.
As for `CCOc1ccc(OCC(=O)NCCS(=O)(=O)N2CCN(c3ccc(OC)cc3)CC2)cc1`, the “activity change, negative = cytotoxicity” value is inactive: -0.823%.
For `Cc1ccc(NC(=O)Cn2c(=O)n(CCc3ccccc3)c(=O)c3sc4ccccc4c32)cc1C` the value was inactive: -1.49%.
For `CCn1c(=O)c(C(=O)Nc2cc(OC)c(OC)c(OC)c2)nc2ccccc21`, the “activity change, negative = cytotoxicity” value is inactive: 11.9%.
Regarding `COc1ccc(C2CC(=O)c3cc(-c4nc(-c5cccc([N+](=O)[O-])c5)cs4)c(=O)n(-c4ccccc4C)c3C2)cc1` (stereo not given), the “activity change, negative = cytotoxicity” value was inactive: 1.53%.
For the molecule `Cc1ccc(-c2cc(NC(=O)COc3c(C)cc(C)cc3C)on2)cc1`, the “activity change, negative = cytotoxicity” value was inactive: 0.821%.
With `O=C(NCc1ccccc1F)c1cccc(NC(=O)N2CCSc3ncccc32)c1` the figure was inactive: 18.5%; with `O=C(COc1ccccc1)NCCc1csc(-c2ccc(F)cc2)n1`, inactive: 8.95%.
For `COc1ccc(CNC(=O)CCc2nc3cccnc3n2Cc2ccc(OC)cc2)cc1` the value was inactive: -1.88%.
With `CCCCOc1ccc(Cn2c(=O)oc3ccccc32)cc1` the figure was inactive: 1.71%.
Consider `O=C(Cn1cc(S(=O)(=O)Cc2cccc(Cl)c2)c2ccccc21)Nc1ccc(F)c(Cl)c1`, for which the “activity change, negative = cytotoxicity” value is inactive: 10%.
For `O=C(CCCCn1c(=O)c2ccccc2n(Cc2ccccc2F)c1=O)NCc1ccc2c(c1)OCO2` the value was inactive: 19.9%; for `Cc1cc2oc(C(=O)N(Cc3ccc(N(C)C)cc3)CC3CCCO3)c(C)c2cc1C` (stereo not given), inactive: 11.4%.
With `O=C(NCc1ccc(Cl)cc1)C1(c2cccs2)CCOCC1` the figure was inactive: 8.22%.
For `CCC1=Nc2cc(C(=O)NCCCOC(C)C)ccc2Sc2ccc(C)cc21` the value was inactive: -0.206%; for `COc1ccc(-c2noc(-c3cc(C(C)C)[nH]n3)n2)cc1`, inactive: -14.1%; for `CCN1CCc2c(sc(NC(=O)CSc3ccccc3)c2-c2nc3ccccc3s2)C1`, inactive: -22.8%.
For `CCOc1ccc(CNC(=O)CN2C(=O)CSc3ccc(S(=O)(=O)N4CCOCC4)cc32)cc1OC`, the “activity change, negative = cytotoxicity” value is inactive: 25.4%.
With `Cn1c(=O)cc(OCC(=O)N2CCN(c3ccccc3F)CC2)c2ccccc21` the figure was inactive: 6.26%; with `Cc1ccc(CNC(=O)C2CCCN(c3nc4c(C)cc(C)cc4s3)C2)cc1` (stereo not given), inactive: 0.629%.
With `COC(=O)c1ccccc1NC(=O)CCn1nc(C)c2c(C)n(-c3ccccc3)nc2c1=O` the figure was inactive: -1.77%.
`Cc1ccc(OCCSc2nc3ccccc3n2CC(=O)N2CCCCC2)cc1C`: the “activity change, negative = cytotoxicity” value is inactive: 1.95%.
For `O=C(Nc1ccc(NC(=O)c2cccs2)cc1)c1ccc(Cl)cc1` the value was inactive: 16.2%; for `COC(=O)c1ccccc1NC(=O)Cn1ncc2c(C)n(Cc3ccc(F)cc3)c(C)c2c1=O`, inactive: -23.8%.

(Values after PubChem BioAssay AID1508642 (National Center for Advancing Translational Sciences (NCATS), 2021).)
